From PubChem BioAssay AID360 (National Center for Advancing Translational Sciences (NCATS), 2006)
The whole screen tested about 48,000 compounds, of which about 550 (1.1%) were called active. Another 4% or so got no clear call; they are omitted. Rule as the data show it: active = potency below about 15 µM; inconclusive = mostly about 16 µM to 33 µM; inactive = weaker than that. This is one part of the list.

These compounds were tested against Lysosomal acid glucosylceramidase (Homo sapiens) (UniProt P04062) (assay: Glucocerebrosidase). Conditions: purified enzyme, resorufin glucoside fluorescence (screen aimed at inhibitors), 20 min.
Method in brief: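 Wild-type enzyme at 0.2 nM final in 50mM citric acid/KH2PO4, 10mM sodium taurocholate, 0.01% tween-20, pH 5.9, with resorufin beta-D-glucopyranoside at 30 uM final. Compounds titrated, 20 min at RT, red fluorescence read; AC50 from titration.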
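Also: the screen sought inhibitors.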
Potency is read from the fitted curve at half-maximal effect.

Chain of UniProt P04062 (P04062 whole entry, looked up): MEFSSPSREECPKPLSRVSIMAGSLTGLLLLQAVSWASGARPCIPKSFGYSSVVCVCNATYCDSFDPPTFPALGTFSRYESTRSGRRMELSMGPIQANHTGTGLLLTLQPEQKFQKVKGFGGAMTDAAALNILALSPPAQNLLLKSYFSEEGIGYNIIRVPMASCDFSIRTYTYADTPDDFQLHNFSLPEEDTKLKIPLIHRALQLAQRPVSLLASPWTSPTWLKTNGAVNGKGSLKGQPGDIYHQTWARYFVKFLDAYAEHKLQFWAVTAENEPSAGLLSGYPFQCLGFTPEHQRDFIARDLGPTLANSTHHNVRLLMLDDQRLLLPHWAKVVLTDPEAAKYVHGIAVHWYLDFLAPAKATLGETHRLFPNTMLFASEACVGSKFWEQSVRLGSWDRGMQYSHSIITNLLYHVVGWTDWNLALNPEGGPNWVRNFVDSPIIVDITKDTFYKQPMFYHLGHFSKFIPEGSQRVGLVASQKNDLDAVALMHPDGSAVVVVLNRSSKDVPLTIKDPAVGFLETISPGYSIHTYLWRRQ

Potency, inactive:
COc1ccc(C(=O)OCCNC(=O)c2c(Cl)nc3ccccn23)cc1 > 76.9 µM, Cc1sc2nc(C3CC3)nc(N3CCN(S(=O)(=O)c4ccc(F)cc4)CC3)c2c1C > 76.9 µM, O=C(O)c1ccc(Cl)c(S(=O)(=O)NCc2ccco2)c1 > 76.9 µM, O=c1oc2c(CN3CCOCC3)c(O)c(Cl)cc2c2c1CCC2 > 76.9 µM, Cc1cc(C(=O)Nc2ccc(C(=O)O)cc2)c(-c2ccccc2)o1 > 76.9 µM, COC(=O)CNc1c(-c2ccccn2)nc2ccc(Br)cn12 > 76.9 µM, COc1cc2[nH]c(=O)n(CCC(=O)N3CCc4ccccc4C3)c(=O)c2cc1OC > 76.9 µM, COc1ccc(CSc2nc(N3CCOCC3)c3c(c2C#N)CC(C)(C)OC3)cc1 > 76.9 µM, O=C(C1CC1)N1CCC(c2nc(-c3ccc(S(=O)(=O)NCC4CCCO4)cc3)no2)CC1 (configuration not stated) > 76.9 µM, Cc1cc(C)cc(OCc2nnc(SCC(=O)c3ccc(Br)cc3)o2)c1 > 76.9 µM, Cc1nnc(SCCCn2c(N3CCCCC3)nc3c2c(=O)[nH]c(=O)n3C)s1 > 76.9 µM, CC1=NOC2(C1)/C(=N/O)CCC/C2=N\O (configuration not stated) > 76.9 µM, COc1ccc(C(=O)Nc2ccccc2NC(=O)c2ccco2)cc1OC > 76.9 µM, Cc1c(C(=O)OCC(=O)N2CC(C)OC(C)C2)oc2ccc(Br)cc12 (configuration not stated) > 76.9 µM, COC(=O)c1cc(NC(=O)CC2NCCNC2=O)cc(C(=O)OC)c1 (configuration not stated) > 76.9 µM, CC(C)Cn1c(N)c(C(=O)NCc2cccs2)c2nc3ccccc3nc21 > 76.9 µM, COc1cc(C)nc(NCc2ccccc2)n1 > 76.9 µM, Cc1ccc(-n2ncc3c(NCc4ccccc4)ncnc32)cc1 > 76.9 µM, O=C(COc1ccc(Cl)cc1)NCc1nnc(SCC(=O)N2CCCCC2)o1 > 76.9 µM, COC(=O)C1=C(CSc2nncn2C)NC(=O)NC1c1cc(C)ccc1C (configuration not stated) > 76.9 µM, Cc1nnc(NC2=NCCC2)s1 > 76.9 µM, COc1cc(N=c2ssnc2Cl)cc(OC)c1OC > 76.9 µM, S=C(NCC1CCCO1)n1nnc2ccccc21 (configuration not stated) > 76.9 µM, Nc1nc(C(=O)N2CCOCC2)nn1S(=O)(=O)c1ccccc1 > 76.9 µM, NCCc1nnc(SCc2c(F)cccc2Cl)o1, O=C(CCC1COc2ccccc2O1)NCc1ccco1 (configuration not stated) > 76.9 µM, CCCOc1ccccc1C1C(C(=O)OC)=CN(C(C)C)C=C1C(=O)OC > 76.9 µM, COc1ccc(C2C(C#N)=C(N)Oc3c2oc(CO)cc3=O)c(OC)c1OC (configuration not stated) > 76.9 µM, CC1CCN(C(=O)c2ccc(NC(=O)C3CCCO3)cc2)CC1 (configuration not stated) > 76.9 µM, O=S(=O)(NCC1CCCO1)c1ccc(Oc2ccccc2)cc1 (configuration not stated) > 76.9 µM, CCOC(=O)c1c(C)n(C)c2ccc(OC(C)C(=O)OC)cc12 (configuration not stated) > 76.9 µM, CC1=C(C(=O)OC(C)C)C(c2cccc(F)c2)N2C(=O)C(C)SC2=N1 (configuration not stated) > 76.9 µM, CCCn1c(SCC(=O)c2ccc3c(c2)OCCO3)nnc1C(C)C > 76.9 µM, CCCn1c(SCC(N)=O)nnc1-c1ccco1 > 76.9 µM, COC(=O)c1ccc(C(=O)OC)c(NC(=O)CCc2ccc(C)o2)c1 > 76.9 µM, CN(C)C(=O)CSc1nnc([C@H](Cc2c[nH]c3ccccc23)NC(=O)OC(C)(C)C)o1 > 76.9 µM, CC(C)(C)n1cnc2cc(NS(=O)(=O)c3ccccc3)ccc21 > 76.9 µM, CN(Cc1ccccc1)c1nc2c(c(=O)[nH]c(=O)n2C)n1Cc1ccccc1 > 76.9 µM, COc1ccccc1NC(=O)N(Cc1cc2cc(OC)c(OC)cc2[nH]c1=O)CC1CCCO1 (configuration not stated) > 76.9 µM, O=C(OCCOc1ccc(Br)cc1)c1cnccn1 > 76.9 µM, CCN1CCN(CCCNC(=O)C2CCCN(c3nnc(-n4cccc4)s3)C2)CC1 (configuration not stated) > 76.9 µM, C=C(C)CSCc1nc2ccccc2[nH]1 > 76.9 µM, Cn1cc(Cl)c(C(=O)NC2CCCCCC2)n1 > 76.9 µM, N/C(CN1CCCC1=O)=N\O > 76.9 µM, Cc1cc(NS(=O)(=O)c2cccs2)no1 > 76.9 µM, CC(C)(C)c1cn(-c2ccccc2)c(=S)[nH]1 > 76.9 µM, COc1cccc(/C(O)=C2/C(=O)C(=O)N(CCN(C)C)C2c2ccccn2)c1 (configuration not stated) > 76.9 µM, COc1ccc(C(c2nnnn2CC2CCCO2)N2CCN(c3ccc(F)cc3)CC2)cc1 (configuration not stated) > 76.9 µM, Nc1cc(=O)[nH]c(SCc2cccc(Cl)c2)n1 > 76.9 µM, COC(=O)c1[nH]c2ccc(C)cc2c1NC(=O)CN1CCCCC1C (configuration not stated) > 76.9 µM, COc1nc(OC)nc(N2CCC(C(=O)NCc3cccs3)CC2)n1 > 76.9 µM, CCOC(=O)C(CC)n1cnc2c(oc3ccccc32)c1=O (configuration not stated) > 76.9 µM, Cn1c(=O)[nH]c(=O)c2c1nc(N1CCc3ccccc3C1)n2CCSc1nc2ccccc2s1 > 76.9 µM, CCC(Oc1ccccc1)C(=O)Nc1nnc(C)s1 (configuration not stated) > 76.9 µM, Nc1nncn1C(=O)c1ccccc1Cl > 76.9 µM, COc1cc(=O)[nH]c(SCc2c(F)c(F)c(F)c(F)c2F)n1 > 76.9 µM, CCCC(=O)Nc1ccc2c(c1)C(=O)N(CCC(=O)O)C2=O > 76.9 µM, CCCc1[nH]nc2c1C(c1ccc(OC)cc1OC)C(C#N)=C(N)O2 (configuration not stated) > 76.9 µM, COC(=O)c1ccc(Cc2ccc(C(=O)OC)o2)o1 > 76.9 µM, CC(OC(=O)c1ccco1)C(=O)NCc1cccs1 (configuration not stated) > 76.9 µM, COc1ccc(OC)c(-n2c(C)nc3cc(C(=O)O)ccc32)c1 > 76.9 µM, Cc1ccc(C(=O)Nc2sc3c(c2C(=O)O)CCCCC3)o1 > 76.9 µM, CCOc1cccc(-n2nnnc2-c2ccc(OC)cc2)c1 > 76.9 µM, O=C(Nc1ccccc1C(F)(F)F)c1cc(-c2cccc(O)c2)on1 > 76.9 µM, c1ccc(NC(=NCc2ccco2)c2ccccc2)cc1 > 76.9 µM, CCCCOn1c(C)c(C(=O)OCC)c2c3nonc3ccc21 > 76.9 µM, O=C(CSc1ncn[nH]1)c1ccco1 > 76.9 µM, Cc1nn(CC(=O)NCc2ccccc2)c(=O)c2ccccc12 > 76.9 µM, CCOC(=O)CNC(=O)CSc1nc2cccnc2n1C1CCCCC1 > 76.9 µM, O=C(NC1CCCCC1)c1nc2c(nnn2Cc2ccccc2Cl)c(=O)[nH]1 > 76.9 µM, COc1cc(Cl)cc(NC(=O)CCN2CCN(C)CC2)c1 > 76.9 µM, O=C(Cn1cnc2c(nnn2Cc2ccc(Cl)cc2)c1=O)NCC1CCCO1 (configuration not stated) > 76.9 µM, O=C(CNC(=O)c1ccco1)OCc1c(F)cccc1Cl > 76.9 µM, C=CCn1c(SCC(=O)Nc2cc(C)nn2-c2ccccc2)nnc1C1CCCCC1 > 76.9 µM, CCOc1ccc(-c2n[nH]c(C)c2Oc2ccc(OC)cc2)c(O)c1 > 76.9 µM, CCN(CC)CCNc1nc2ccccc2n1C > 76.9 µM, CCCCNC(=O)c1ccc2c(c1)N(CC)C(=O)CS2 > 76.9 µM, O=C(c1ccc2c(c1)OCO2)N(CC1CCCO1)C1(C(=O)NC2CCCC2)CCCCC1 (configuration not stated) > 76.9 µM, COc1ccc(OC)c(N=c2oc3cc(O)ccc3cc2C(N)=O)c1 > 76.9 µM, CC(=O)NC12CC3CC(C1)CC(C(=O)OCC(=O)c1ccc4c(c1)OCCO4)(C3)C2 > 76.9 µM, COC(=O)c1ccc(NC(=O)CN(C2CCCCC2)S(C)(=O)=O)cc1 > 76.9 µM, O=C(CSc1nc2c(c(=O)n1-c1ccc(Br)cc1)SCC2)Nc1nccs1 > 76.9 µM, CN(C)C=Nc1nonc1-c1ncn[nH]1 > 76.9 µM, O=C(CCN1C(=O)C2C3C=CC(C3)C2C1=O)NCC1CCCO1 (configuration not stated) > 76.9 µM, CCOc1ccc(-n2c(=O)c3c4c(sc3n(CC(=O)NCc3ccco3)c2=O)CCC4)cc1 > 76.9 µM, CN1CCN(c2nc(Nc3cccc(C(F)(F)F)c3)nc(N3CCOCC3)n2)CC1 > 76.9 µM, CCOC(=O)c1sc2ccc(S(=O)(=O)N3CCOCC3)cc2c1N > 76.9 µM, CCCN1CCN(C(=O)c2cn(CC(C)C)c(=O)c3cc(OC)c(OC)cc23)CC1 > 76.9 µM, COc1ccc(C2CC(C(F)(F)F)n3nc(C(=O)NCCCn4ccnc4)cc3N2)cc1OC (configuration not stated) > 76.9 µM, N=c1ccn(Cc2ccc(Cl)c(Cl)c2)cc1 > 76.9 µM, Cc1c(C)[n+](=O)c(-c2cccs2)c(C)n1[O-] > 76.9 µM, CCn1c(=O)n(CC)c2cc(S(=O)(=O)N3CCOCC3)ccc21 > 76.9 µM
